B1: FIXa D85N/D203N/F205T (protein)
chain 1: YNSGKLEEFVQGNLERECMEEKCSFEEAREVFENTERTTEFWKQYVDGDQCESNPCLNGGSCKDDINSYECWCPFGFEGKNCELNVTCNIKNGRCEQFCKNSADNKVVCSCTEGYRLAENQKSCEPAVPFPCGRVSVSQTSKLTR
chain 2: [about 250 residues with changes left out]
B2: FIXa D85N/K228N (protein)
chain 1: YNSGKLEEFVQGNLERECMEEKCSFEEAREVFENTERTTEFWKQYVDGDQCESNPCLNGGSCKDDINSYECWCPFGFEGKNCELNVTCNIKNGRCEQFCKNSADNKVVCSCTEGYRLAENQKSCEPAVPFPCGRVSVSQTSKLTR
chain 2: [about 250 residues with changes left out]
B3: FIXa A103N/N105S/K228N (protein)
chain 1: YNSGKLEEFVQGNLERECMEEKCSFEEAREVFENTERTTEFWKQYVDGDQCESNPCLNGGSCKDDINSYECWCPFGFEGKNCELDVTCNIKNGRCEQFCKNSNDSKVVCSCTEGYRLAENQKSCEPAVPFPCGRVSVSQTSKLTR
chain 2: [about 250 residues with changes left out]
B4: FIXa D85N/I251S (protein)
chain 1: YNSGKLEEFVQGNLERECMEEKCSFEEAREVFENTERTTEFWKQYVDGDQCESNPCLNGGSCKDDINSYECWCPFGFEGKNCELNVTCNIKNGRCEQFCKNSADNKVVCSCTEGYRLAENQKSCEPAVPFPCGRVSVSQTSKLTR
chain 2: [about 250 residues with changes left out]
B5: FIXa-D85N/D104N/K106S/I251S (protein)
chain 1: YNSGKLEEFVQGNLERECMEEKCSFEEAREVFENTERTTEFWKQYVDGDQCESNPCLNGGSCKDDINSYECWCPFGFEGKNCELNVTCNIKNGRCEQFCKNSANNSVVCSCTEGYRLAENQKSCEPAVPFPCGRVSVSQTSKLTR
chain 2: [about 250 residues left out]

Experiments:
[1] = biological target: Antithrombin III (AT-III), plasma purified human, in complex with full-length unfractionated heparin (UFH)
[2] = biological target: plasma purified human AT-III (antithrombin III), in complex with low molecular weight heparin; assay: same assay; ratio of K0.5 to that of Catalyst Biosciences WT FIXa

Row | Protein | K0.5 [1] | K0.5-mut/K0.5-wt [1] | K0.5-mut/K0.5-wt [2]
1 | B1 | 587 nM | 30.3 | 
2 | B2 | 34 nM | 1.7 | 
3 | B3 | 46 nM | 2.4 | 
4 | B4 | 19 nM |  | 
5 | B5 |  |  | 1.1

From patent publication US20210230570
